This experiment relates to Human Microvascular Endothelial Cells (HMVEC). Conditions: for endothelial cell migration (number of cells migrated per 10 high power fields): substance alone, 0.001 to 10.0 μM, 4 hours at 37° C.

For `C[C@@H](NC(=O)[C@@H](N)Cc1ccc(O)cc1)C(=O)NCC(=O)N(C)[C@@H](Cc1ccccc1)C(=O)NCCO` [DAMGO, [D-Ala^2, N-McPhe^4, Gly^5-ol]-enkephalin], the “endothelial cell migration (number of cells migrated per 10 high power fields)” value is recorded as “dose-dependent increase in migration of endothelial cells”.

With `CN1CC[C@]23c4c5ccc(O[C@@H]6O[C@H](C(=O)O)[C@@H](O)[C@H](O)[C@H]6O)c4O[C@H]2[C@@H](O)C=C[C@H]3[C@H]1C5` [M3G, morphine 3-glucuronide], the “endothelial cell migration (number of cells migrated per 10 high power fields)” value was “exerts no angiogenic activity”.

As to `CN1CC[C@]23c4c5ccc(O)c4O[C@H]2[C@@H](O[C@@H]2O[C@H](C(=O)O)[C@@H](O)[C@H](O)[C@H]2O)C=C[C@H]3[C@H]1C5` [M6G, morphine 6-glucuronide], the “endothelial cell migration (number of cells migrated per 10 high power fields)” value is listed as “exhibited a concentration dependent effect on angiogenesis”.

For `C[N@+]1(CC2CC2)CC[C@]23c4c5ccc(O)c4O[C@H]2C(=O)CC[C@@]3(O)[C@H]1C5` [methylnaltrexone, N-methylnaltrexone], the “inhibition of DAMGO-induced endothelial cell migration” value (DAMGO 1 μM) is given as “decreased migration in a concentration-dependent manner”.

Source of the values: patent US9717725B2, “Use of opioid antagonists” (THE UNIVERSITY OF CHICAGO, priority 2005, dated 2017).
